Activity change, negative = inhibition data for 30 compounds are collected here from PubChem BioAssay AID1745853 (National Center for Advancing Translational Sciences (NCATS), 2022).

Common to all, as to experiment: Primary Screen for Target Class Profiling of Small Molecule Inhibitors of Methyltransferases
The target in experiment [1] is Glycine N-methyltransferase (Homo sapiens) (UniProt Q14749). The settings on record: purified enzyme, MTase-Glo SAH luminescence; measured here: GNMT inhibition; at 40 µM; stronger effect = lower value. In a few lines: (§1)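 Each enzyme was reacted with SAM and its substrate, with compounds tested once at 40 uM; SAH formed was read by MTase-Glo luminescence.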
Experiment [2] has as its target Guanidinoacetate N-methyltransferase (Homo sapiens) (UniProt Q14353). To be noted: purified enzyme, MTase-Glo SAH luminescence; measured here: GAMT inhibition; at 40 µM; stronger effect = lower value. In a few lines:
as §1

Experiment [3] has as its target Histamine N-methyltransferase (Homo sapiens) (UniProt P50135). The settings on record: purified enzyme, MTase-Glo SAH luminescence; measured here: HNMT inhibition; at 40 µM; stronger effect = lower value. A digest of the protocol:
as §1

For experiment [4], the target named is Nicotinamide N-methyltransferase (Homo sapiens) (UniProt P40261). The settings on record: purified enzyme, MTase-Glo SAH luminescence; measured here: NNMT inhibition; at 40 µM; stronger effect = lower value. In a few lines:
as §1

Experiment [5] has as its target Phenylethanolamine N-methyltransferase (Homo sapiens) (UniProt P11086). The settings on record: purified enzyme, MTase-Glo SAH luminescence; measured here: PNMT inhibition; at 40 µM; stronger effect = lower value. In a few lines: as §1

“And” between values parts separate entries of the source, which are not always exact repeats. Identical values can stand only once. Some of the results follow. Shown are side measurements of this screen, not its main read-out; they come without a call.
% is set by controls: 0 for no effect and ±100 for the full control effect.

As to `CCn1c(C(=O)OC)c(NC(C)=O)c2cc(NC(C)Cc3ccccc3OC)cnc21` (stereo not given), the activity change, negative = inhibition in experiment [1] was -6.61%; in experiment [2], -2.49%; in experiment [3], -8.67%; in experiment [4], 2.02%; in experiment [5] it was -11.1%.
The like results for `Cn1nccc1C(=O)N1CC(C(=O)Nc2ccccn2)C2(CCOCC2)C1` (stereo not given) were, in that order, -2.35%, -6.41%, -1.57%, -5.96% and -4.62%.
As to `O=C(NCc1cccs1)c1c[nH]c2ncccc12`, the activity change, negative = inhibition in experiment [1] was -3.8%; in experiment [2], 0.39%; in experiment [3], 1.44%; in experiment [4], -7.19%; in experiment [5], -7.54%.
Turning to `Cc1nn2c(c1-c1ccccc1OCc1ccccc1)N(Cc1nccn1C)CCC2`, the activity change, negative = inhibition in experiment [1] was -4.39%; in experiment [2] it was -4.93%; in experiment [3], -3.92%; in experiment [4], -25.8%; in experiment [5], -4.89%.
The like results for `Cc1ccc(C)c(CNC(=O)c2cc3n(n2)CC(C)(C(=O)NCc2ccc(F)cc2)N(C)C3=O)c1` (stereo not given) were, in that order, -4.85%, 1.7%, -1%, -4.75% and -5.72%.
Turning to `C/C(=C\CO)CC/C=C(\C)C(=O)O[C@@H]1O[C@H](CO)[C@@H](O)[C@H](O)[C@H]1O`, the activity change, negative = inhibition was 2.75% in experiment [1]; -0.656% in experiment [2]; 7.38% in experiment [3]; -14.2% in experiment [4]; 6.77% in experiment [5].
The like results for `CCCn1c(=O)c2ccc(C(=O)NC(C)C)cc2n2c(SCC(=O)Nc3cc(C)cc(C)c3)nnc12` were, in that order, 2.23%, 0%, 7.93%, -7.66% and 5.47%.
Taken in the same sequence, the figures for `CCCn1c(=O)c2ccc(C(=O)NC(C)CC)cc2n2c(SCC(=O)Nc3ccc(C)cc3C)nnc12` (stereo not given) were -1.15%, 0.456%, 0.588%, -1.82% and 4.44%.
As for `COC(=O)[C@H]1[C@H]2C[C@H]3c4[nH]c5ccccc5c4CCN3C[C@H]2CC[C@@H]1O`, the activity change, negative = inhibition in experiment [1] is -25.5%; in experiment [2], 0.043%; in experiment [3], -8.12%; in experiment [4] it was -10.4%; in experiment [5], -48.3%.
Taken in the same sequence, the figures for `Cc1cccc(NC(=O)Cn2nc3n(CCC(C)C)c(=O)c4ccc(C(=O)NC(C)C)cc4n3c2=O)c1` were 8.23%, 0%, 4.01%, 7.27% and 5.54%.
With `COc1ccc(CC2CCOC3(CCN(S(=O)(=O)c4c(C)nn(C)c4C)CC3)C2)cc1` (stereo not given), the activity change, negative = inhibition in experiment [1] was -6.64%; in experiment [2] it was -4.82%; in experiment [3], -1.38%; in experiment [4], -10.4%; in experiment [5], -2.18%.
Taken in the same sequence, the figures for `CC(=O)Nc1ccc(NS(=O)(=O)c2ccc3[nH]c(=O)[nH]c3c2)cc1` were -4.88%, 0.66%, 9.93%, 14% and -5.79%.
The like results for `COc1cc(-c2nc(N[C@H](CO)Cc3ccccc3)ccc2C(=O)NCCOc2ccccc2)cc(OC)c1OC` were, in that order, -0.484%, 4.74%, 11.4%, -19.1% and 2.8%.
For the compound `C=C(CCC1C(C)(O)CCC2C(C)(C)C(O)CCC12C)C(O)CO` (stereo not given), the activity change, negative = inhibition in experiment [1] is -6.35%; in experiment [2] it was -16.1%; in experiment [3], -0.32%; in experiment [4] it was -23.1%; in experiment [5] it was -10.4%.
Taken in the same sequence, the figures for `CCCn1c(=O)c2ccc(C(=O)NCC(C)C)cc2n2c(=O)n(CC(=O)Nc3cccc(F)c3)nc12` were 5.87%, 0%, 5.35%, 3.85% and 3.54%.
Taken in the same sequence, the figures for `Cc1cn(C[C@H](NC(=O)c2cccc(F)c2)C(=O)O)c(=O)[nH]c1=O` were -8.97%, -12.1%, -5.27%, -24.1% and -26.9%.
Taken in the same sequence, the figures for `COC[C@H]1C[C@@H](NC(=O)Nc2ccc(F)cc2)[C@H](O)[C@@H]1O` were -6.75%, -8.9%, -14.3%, -17.9% and -12.4%.
As to `Cc1ccc(Cn2nc3n(CC(C)C)c(=O)c4ccc(C(=O)NC(C)C)cc4n3c2=O)cc1`, the activity change, negative = inhibition in experiment [1] was 0.539%; in experiment [2], 6.29%; in experiment [3], -0.248%; in experiment [4] it was -0.699%; in experiment [5], 2.26%.
On to `CC(C)n1c(=O)c2ccc(C(=O)NC3CCCCC3)cc2n2c(=O)n(CC(=O)c3ccccc3)nc12`, for which the activity change, negative = inhibition in experiment [1] was 3.39%; in experiment [2] it was 6.3%; in experiment [3] it was 2.96%; in experiment [4] it was -1.37%; in experiment [5], 3.52%.
The like results for `CC(C)Cn1c(=O)c2ccccc2n2c(=O)n(Cc3ccccc3F)nc12` were, in that order, -2%, 0.671%, 3.01%, -7.27% and -0.838%.
The like results for `Cc1ccc(C)c(N2C(=O)c3cc(-c4cccs4)nn3CC2(C)C(=O)NC2CCCCC2)c1` (stereo not given) were, in that order, 2.14%, 0%, 4.91%, 5.36% and 2.6%.
Taken in the same sequence, the figures for `Cn1cc(Nc2ccc(Cl)cc2)c2nc(CN3CC[S+](=O)([O-])CC3)cn2c1=O` were -18.9%, -14%, -5.02%, -16.3% and -21.7%.
With `CC1(C(=O)N2CCc3ccccc32)CCCCC(=O)N1` (stereo not given), the activity change, negative = inhibition in experiment [1] was -3.57%; in experiment [2], -4.64%; in experiment [3], -1.59%; in experiment [4], -11%; in experiment [5], -4.01%.
Taken in the same sequence, the figures for `COC(=O)c1ncn2c1C(=O)N(Cc1ccccc1C)C(C)(C(=O)NCc1ccccc1)C2` (stereo not given) were -8.88%, 0.725%, -7.57%, -10.9% and -8.56%.
For `CC(C)NCC(O)COc1cccc2[nH]ccc12` (stereo not given), the activity change, negative = inhibition is 0.639% and -5.8% in experiment [1]; 4.9% and 2.5% in experiment [2]; 8.36% and 2.86% in experiment [3]; -4.42% and -8.91% in experiment [4]; 3.56% and 5.66% in experiment [5].
Consider `Cc1ccc(Cn2nc3n(Cc4ccccc4)c(=O)c4ccc(C(=O)NCC(C)C)cc4n3c2=O)cc1`, for which the activity change, negative = inhibition was 0.739% in experiment [1]; 1.17% in experiment [2]; 4.79% in experiment [3]; -0.719% in experiment [4]; -0.846% in experiment [5].
The like results for `Cc1ccc(Nc2ccn3c(=O)n(CC(=O)Nc4ccc(C)cc4C)nc3n2)cc1` were, in that order, 11.3%, 0%, 6.46%, 1.13% and 2.15%.
The like results for `CCC(C)NC(=O)c1ccc2c(=O)n(CC(C)C)c3nn(C)c(=O)n3c2c1` (stereo not given) were, in that order, -1.69%, -4.7%, 0.493%, -6.08% and -6.12%.
Regarding `Cc1ccc(N2C(=O)c3cc4sccc4n3CC2(C)C(=O)NC2CCCCC2C)c(C)c1` (stereo not given), the activity change, negative = inhibition is 2.77% in experiment [1]; 0% in experiment [2]; 5.67% in experiment [3]; 0.582% in experiment [4]; -0.335% in experiment [5].
Taken in the same sequence, the figures for `COc1ccc(CNC(=O)c2cc3n(n2)CC(C)(C(=O)NC2CCCCC2)N(C)C3=O)cc1OC` (stereo not given) were 3.01%, 1.99%, -5.19%, -0.993% and -3.7%.
